{
  "source": "PubChem BioAssay AID2675",
  "about": "(National Center for Advancing Translational Sciences (NCATS), 2010)",
  "note": "Among all 280,000 compounds or so, about 100 (0.036%) were called active. The inconclusive results got no clear call from the source; some entries with a clear call stand among them for comparison. Calls come from the whole dose curve; as a rule, active = well fitted inhibition curve with a large enough effect in the signal ratio, with a control signal flat (not every such curve was filed as active); inconclusive = small, poorly fitted or top-dose-only effect, or effect the other way, or a change in a side signal; inactive = no such curve, though single readings can be large or run the other way; the % refers to the signal ratio. Where the call is inconclusive, the potency comes from a doubtful curve fit. “Side channel” marks fits to a control or component signal instead of the main read-out. Potency is the fitted concentration of half-maximal effect; tags give direction and shape of the fitted curve or compound fluorescence and quenching.",
  "data": [
    {"target": "Muscleblind-like protein 1 (Homo sapiens) (UniProt Q9NR56)", "sequence (Q9NR56 whole entry, looked up)": "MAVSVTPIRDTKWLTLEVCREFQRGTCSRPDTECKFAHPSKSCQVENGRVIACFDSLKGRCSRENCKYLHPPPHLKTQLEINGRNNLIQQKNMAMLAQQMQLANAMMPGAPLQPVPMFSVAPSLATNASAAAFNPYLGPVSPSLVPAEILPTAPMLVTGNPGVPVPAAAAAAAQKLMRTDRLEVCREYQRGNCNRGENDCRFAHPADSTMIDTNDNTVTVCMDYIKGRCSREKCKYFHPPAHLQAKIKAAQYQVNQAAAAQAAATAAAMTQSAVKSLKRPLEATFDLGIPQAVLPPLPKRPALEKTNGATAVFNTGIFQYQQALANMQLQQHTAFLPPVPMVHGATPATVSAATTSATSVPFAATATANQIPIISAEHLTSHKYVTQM", "test": "qHTS Assay for Inhibitors of MBNL1-poly(CUG) RNA binding", "conditions": "TR-FRET MBNL1-His/biotin-(CUG)12 binding, 665/545 ratio; series mostly up to 57.5 µM", "method_in_brief": "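Compounds (final 92 nM to 58 uM) are added to His-tagged MBNL1 and biotin-(CUG)12, then terbium anti-His antibody and streptavidin-XL665 (5 nM final). After 60 min at room temperature, the 665/545 nm ratio is read.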", "values": [
      {"smiles": "COc1ccc(/C(C)=N/Nc2nc(C)c(C(C)=O)s2)cc1", "Potency": "inconclusive: 25.1 µM [quencher, side channel, partial curve]"},
      {"smiles": "Cc1ccc(N2C(=O)[C@@H]3[C@H](C2=O)[C@H]2C=CC=NN2[C@@H]3C(=O)Nc2ccc(Cl)cc2)cc1", "Potency": "inconclusive: 35.5 µM [quencher, side channel, single point]"},
      {"smiles": "NNC(=O)c1oc2nc(-c3ccccc3)cc(-c3ccccc3)c2c1N", "Potency": "inconclusive: 20 µM [quencher, side channel, partial curve]"},
      {"smiles": "COC(=O)c1ccc(N2CCN(CC(=O)c3ccc(-c4ccccc4)cc3)CC2)c([N+](=O)[O-])c1", "Potency": "inconclusive: 12.6 µM [quencher, side channel, partial curve]"},
      {"smiles": "CSC1=NCCN1C(=O)c1ccc(S(=O)(=O)N2CCCCC2)cc1", "Potency": "inconclusive: 0.398 µM [quencher, side channel, partial curve, poor fit]"},
      {"smiles": "O=C(Nc1c2c(nn1-c1ccc(F)cc1)CSC2)c1ccc(S(=O)(=O)N2CCOCC2)cc1", "Potency": "inactive"},
      {"smiles": "CC(C)(C)NC(=O)c1cc2c(ccc3ccccc32)oc1=O", "Potency": "inconclusive: 3.55 µM [quencher, side channel, full curve]"},
      {"smiles": "CCn1cc([N+](=O)[O-])c(C(=O)Nc2nc3ccc(OC)cc3s2)n1", "Potency": "inconclusive: 28.2 µM [quencher, single point]"},
      {"smiles": "CCN1C(C)=C(C)S/C1=C1\\SC(=S)N(NC(C)=O)C1=O", "Potency": "inconclusive: 25.1 µM [quencher, side channel, partial curve]"},
      {"smiles": "CCOC(=O)c1nnsc1-c1ccc(-c2snnc2C(=O)OCC)cc1", "Potency": "inconclusive: 3.55 µM [quencher, side channel, single point]"},
      {"smiles": "COc1ccc(OC)c(/C=N/NC(=O)CSc2nnc(C)n2-c2ccccc2)c1", "Potency": "inconclusive: 28.2 µM [quencher, side channel, single point]"},
      {"smiles": "S=C(Nc1ccc(Cl)cc1)Nc1cccc2cnccc12", "Potency": "inconclusive: 22.4 µM [quencher, side channel, partial curve]"},
      {"smiles": "O=C(NCC1CCN(C(=O)c2cccc([N+](=O)[O-])c2)CC1)c1cccc([N+](=O)[O-])c1", "Potency": "inconclusive: 12.6 µM [quencher, side channel, partial curve]"},
      {"smiles": "CC(O)CNc1cc(N)c([N+](=O)[O-])cc1[N+](=O)[O-]", "note": "(stereo not drawn)", "Potency": "inconclusive: 7.08 µM [quencher, side channel, partial curve]"},
      {"smiles": "O=C(O)CCCCCNS(=O)(=O)c1ccc2c3c(cccc13)C(=O)N2", "Potency": "inconclusive: 25.1 µM [quencher, side channel, partial curve]"},
      {"smiles": "COc1ccc(-c2ccc(=O)n(Cc3cccc([N+](=O)[O-])c3)n2)cc1", "Potency": "inconclusive: 15.8 µM [quencher, side channel, partial curve]"},
      {"smiles": "CC(C)Oc1ccc(/C(O)=C2/C(=O)C(=O)N(CCCn3ccnc3)C2c2cccnc2)cc1", "note": "(stereo not drawn)", "Potency": "inactive"},
      {"smiles": "COc1ccc2nc(NC(=O)CSC3=NCCS3)sc2c1", "Potency": "inactive"},
      {"smiles": "O=C(NN1C(=O)/C(=C/C=C/c2ccco2)SC1=S)c1ccncc1", "Potency": "inconclusive: 17.8 µM [quencher, side channel, partial curve]"},
      {"smiles": "CNC(=S)SCCOc1ccccc1C", "Potency": "inconclusive: 0.1 µM [fluorescent, side channel, full curve]"},
      {"smiles": "COc1cc(C2C3=C(CC(C)(C)CC3=O)OC3=C2C(=O)CC(C)(C)C3)cc([N+](=O)[O-])c1O", "Potency": "inconclusive: 17.8 µM [quencher, single point]"},
      {"smiles": "O=C(NCc1cccnc1)c1nn2cccnc2c1Cl", "Potency": "inconclusive: 17.8 µM [quencher, side channel, partial curve]"},
      {"smiles": "COc1ccc(CNC(=O)c2cc3c(=O)n4ccccc4nc3n(Cc3cccnc3)c2=N)cc1", "Potency": "inconclusive: 1.26 µM [quencher, side channel, full curve]"},
      {"smiles": "Nc1ccccc1Sc1ccccc1[N+](=O)[O-]", "Potency": "inconclusive: 25.1 µM [quencher, side channel, partial curve]"},
      {"smiles": "Cc1ccc(Cl)cc1NC(=O)CC1NCCNC1=O", "note": "(stereo not drawn)", "Potency": "inconclusive: 3.16 µM [quencher, side channel, single point]"},
      {"smiles": "O=C(CNS(=O)(=O)c1cccc2nsnc12)NC1CCCCC1", "Potency": "inconclusive: 12.6 µM [quencher, side channel, partial curve]"},
      {"smiles": "O=C(CCn1c(=O)sc2ccccc21)Nc1nc2ccccc2s1", "Potency": "inconclusive: 6.31 µM [quencher, side channel, partial curve, poor fit]"},
      {"smiles": "COc1c(N2CCN[C@H](C)C2)c(F)cc2c(=O)c(C(=O)O)cn(C3CC3)c12", "Potency": "inconclusive: 7.08 µM [fluorescent, side channel, single point]"},
      {"smiles": "COc1ccccc1OCc1nc(-c2cccc([N+](=O)[O-])c2)no1", "Potency": "inconclusive: 15.8 µM [quencher, side channel, partial curve]"},
      {"smiles": "CC(=O)NS(=O)(=O)c1ccc(N2C(=O)c3ccccc3C2=O)cc1", "Potency": "inconclusive: 39.8 µM [quencher, single point]"},
      {"smiles": "CC(C)c1ccc(NC2(C#N)C(=O)Nc3ccccc32)cc1", "note": "(stereo not drawn)", "Potency": "inconclusive: 20 µM [quencher, side channel, partial curve]"},
      {"smiles": "CC1(C)NC(=O)N(CCCCOc2ccccc2[N+](=O)[O-])C1=O", "Potency": "inconclusive: 20 µM [quencher, partial curve]"},
      {"smiles": "CC(=O)Nc1ccc(C(=O)Cn2nnc3ccccc3c2=O)cc1", "Potency": "inconclusive: 10 µM [quencher, side channel, partial curve]"},
      {"smiles": "O=C(Cc1ccccc1)N1CCN(c2ccc([N+](=O)[O-])cc2)CC1", "Potency": "inconclusive: 11.2 µM [quencher, side channel, partial curve]"},
      {"smiles": "Cc1oc(-c2ccccc2Cl)nc1CS(=O)CC(=O)NC1CC1", "note": "(stereo not drawn)", "Potency": "inactive"},
      {"smiles": "O=C(O)c1nn(CCOc2cccc(Br)c2)c(=O)c2ccccc12", "Potency": "inactive"},
      {"smiles": "CCOC(=O)/C(C#N)=C\\c1cc(OC)c(OC)cc1[N+](=O)[O-]", "Potency": "inconclusive: 11.2 µM [quencher, side channel, partial curve]"},
      {"smiles": "Cc1ccc(OS(=O)(=O)c2ccccc2)c(/C=N/N=C2\\NC(=O)C(C)S2)c1", "note": "(stereo not drawn)", "Potency": "inconclusive: 0.126 µM [quencher, side channel, full curve, poor fit]"},
      {"smiles": "CC(NC(=O)/C(=C/c1ccc2c(c1)OCO2)NC(=O)c1cccc([N+](=O)[O-])c1)C(=O)O", "note": "(stereo not drawn)", "Potency": "inconclusive: 17.8 µM [quencher, side channel, partial curve]"},
      {"smiles": "CCOC(=O)Cc1csc(NS(=O)(=O)c2ccc([N+](=O)[O-])cc2)n1", "Potency": "inconclusive: 31.6 µM [quencher, side channel, partial curve]"},
      {"smiles": "O=[N+]([O-])c1cc([N+](=O)[O-])c2cccnc2c1Oc1ccccc1O", "Potency": "inconclusive: 7.94 µM [quencher, side channel, full curve]"},
      {"smiles": "O=C(O)c1ccc(N/N=C/c2ccc(-c3ccccc3)cc2)cc1", "Potency": "inconclusive: 25.1 µM [quencher, side channel, single point]"},
      {"smiles": "Cc1ccc2nc(-c3ccc(N)cc3)sc2c1", "Potency": "inactive"},
      {"smiles": "COC(=O)C[n+]1cccc2ccccc21", "Potency": "inconclusive: 28.2 µM [quencher, side channel, partial curve]"},
      {"smiles": "NS(=O)(=O)c1ccc(NC(=O)c2ccc3nccnc3c2)cc1", "Potency": "inconclusive: 11.2 µM [quencher, side channel, partial curve]"},
      {"smiles": "COc1ccc(-n2nccc2-c2nn(-c3cccc(OC)c3)c(=O)n(C)c2=O)cc1", "Potency": "inconclusive: 28.2 µM [quencher, side channel, partial curve]"},
      {"smiles": "C=CCNC(=S)Nc1ccc(Cl)cc1", "Potency": "inactive"},
      {"smiles": "CCNC(=O)NC(=O)COC(=O)c1ccccc1SCC(=O)NC(=O)NCC", "Potency": "inactive"},
      {"smiles": "COc1ccc(-c2nc(C(=O)NCCCN3CCOCC3)cc3c2[nH]c2ccccc23)cc1OC", "Potency": "inconclusive: 10 µM [quencher, side channel, partial curve]"},
      {"smiles": "COC(=O)CCCC1=CC2=CC(=O)C(C)(OC(=O)c3cccs3)C(=O)C2=CN1C1CC1", "note": "(stereo not drawn)", "Potency": "inconclusive: 39.8 µM [quencher, side channel, single point]"},
      {"smiles": "COc1ccc(NC(=O)ON=C2c3ccccc3-c3ccccc32)cc1", "Potency": "inconclusive: 39.8 µM [quencher, side channel, single point]"},
      {"smiles": "O=C(Nc1nccs1)c1ncc(Cl)c(Cl)c1Cl", "Potency": "inactive"},
      {"smiles": "Cc1nc(C)c(-c2ccc(SCc3ccc([N+](=O)[O-])cc3)nn2)s1", "Potency": "inconclusive: 25.1 µM [quencher, side channel, single point]"},
      {"smiles": "Cc1cccc(-c2nnc(SCC(=O)NCc3ccc4c(c3)OCO4)n2C)c1", "Potency": "inactive"},
      {"smiles": "CC1=C(/C=C/C(C)=N\\NC(=O)c2ccncc2)C(C)(C)CCC1", "Potency": "inactive"},
      {"smiles": "COc1cc(/C=C/C(=O)N2CCN(C(=O)/C=C/c3cc(OC)c(OC)c(OC)c3)CC2)cc(OC)c1OC", "Potency": "inactive"},
      {"smiles": "Cc1ccc(NC(=O)CCNS(=O)(=O)c2cccc3nonc23)cc1Cl", "Potency": "inconclusive: 7.08 µM [quencher, side channel, full curve]"},
      {"smiles": "Cc1ccc2c(c1)C(=O)C(=O)N2CCCOc1ccccc1", "Potency": "inconclusive: 20 µM [quencher, side channel, partial curve, poor fit]"}
    ]}
  ]
}
